Reference: PubChem BioAssay AID686979 (National Center for Advancing Translational Sciences (NCATS), 2013)
Out of some 420,000 compounds screened, about 50,000 (12%) were called active. Inconclusive means that the source gave no clear call. Such entries were picked first, then a sample of the others. Calls come from the whole dose curve; as a rule, active = well fitted inhibition curve with a large enough effect; inconclusive = small, poorly fitted or top-dose-only effect; inactive = flat fitted curve, though single readings scatter. No potency is given beside an inconclusive call; the fits are too rough.
% is set by controls: 0 for no effect and ±100 for the full control effect; potency is the fitted concentration of half-maximal effect; tags give direction and shape of the fitted curve.

Test: qHTS for Inhibitors of human tyrosyl-DNA phosphodiesterase 1 (TDP1): qHTS in cells in presence of CPT; note: nearly all actives have a fitted effect of over 55% in size
Conditions: chicken DT40 Tdp1-/-;hTDP1 cells + 20 nM CPT, ATP luminescence, 48 h; activity change, negative = growth inhibition: at 46.2 µM (top of the series) unless noted
Summary of the method: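 Chicken DT40 Tdp1-/- cells stably complemented with human TDP1 were seeded at 400 cells/well in medium containing 20 nM camptothecin, exposed to pin-transferred compounds, and grown at 37 °C for at least 48 hr. Viability was read as ATP luminescence.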
For `Cc1cccc(C)c1NC(=O)Cn1c(=O)n(Cc2ccc(C(=O)NCc3ccco3)cc2)c(=O)c2sccc21`, the Potency was active: 20.6 µM. For `O=C(COC(=O)C1(c2ccccc2F)CCCC1)NCc1ccc2c(c1)OCO2`, the Potency was inconclusive [inhibitor, partial curve]. In the case of `CC1CCN(C(=O)CCCNC(=O)Cn2cnc3sc4c(c3c2=O)CCCC4)CC1`, the “activity change, negative = growth inhibition” value is reported as inactive: -24.4%. With `COc1ccccc1OCC(=O)OC/C(O)=C(\C#N)c1nc2ccccc2[nH]1` the Potency was inconclusive [inhibitor, single point]. In the case of `Cc1cc(N2CCN(Cc3nc(-c4ccc(F)cc4)oc3C)CC2)cc(C)n1`, the Potency is reported as inconclusive [inhibitor, single point]. For `CC(C)NC(=S)NN(c1ccccc1)c1ccccc1`, the Potency was inconclusive [inhibitor, single point]. In the case of `COc1ccc(CCNC(=S)Nc2cccc3ccccc23)cc1`, the Potency is reported as inconclusive [inhibitor, single point]. In the case of `CC(C)c1ccc(NC(=O)C2CCC(CNC(=O)[C@@H]3Cc4ccccc4CN3)CC2)cc1` (some centres undefined), the Potency is reported as inconclusive [inhibitor, single point]. In the case of `CN(Cc1nc2ccccc2c(=O)[nH]1)C(=O)C1CC(=O)N(c2cccc3ccccc23)C1` (centres undefined), the Potency is reported as inconclusive [inhibitor, single point]. For `Cc1cc(C)c(S(=O)(=O)N2CCOC23CCN(S(C)(=O)=O)CC3)c(C)c1`, the Potency was inconclusive [inhibitor, single point]. With `Cc1nc(-c2ccc(Cl)cc2)sc1C1(C)CC(c2ccc(Br)cc2)=NO1` (centres undefined) the Potency was inconclusive [inhibitor, single point]. In the case of `NC(=O)c1ccsc1NC(=O)COC(=O)c1cc(=O)[nH]c2ccccc12`, the activity change, negative = growth inhibition is reported as inconclusive: -33.9% [inhibitor]. With `c1ccc(Nc2nc(N3CCOCC3)c3ccccc3n2)cc1` the Potency was active: 20.6 µM. For `O=C(/C=C/c1ccc(Cl)cc1Cl)OCC(=O)N1CCCC1`, the “activity change, negative = growth inhibition” value was inactive: -19.3%. In the case of `Cc1cc(C)cc(OCC(=O)Nc2nonc2-c2ccc(Br)cc2)c1`, the Potency is reported as inconclusive [inhibitor, single point]. For `COc1ccc(-c2cnc3nc(/N=C/N(C)C)nn3c2/N=C/N(C)C)cc1`, the Potency was inconclusive [inhibitor, single point]. With `COc1cc(C(=O)Oc2ccccc2OC(=O)c2cc(OC)c(OC)c(OC)c2)cc(OC)c1OC` the “activity change, negative = growth inhibition” value was inactive: 6.09%. In the case of `CCN1CCN(S(=O)(=O)c2ccc(Cl)c(C(=O)N(C)Cc3cccc(Cl)c3Cl)c2)CC1`, the Potency is reported as active: 16.4 µM. For `CCN(CC)S(=O)(=O)c1ccc(NC(=O)CCNC(=O)c2ccccc2)cc1`, the “activity change, negative = growth inhibition” value was inactive: -5.4%. With `COc1ccc(NC(=O)CCS(=O)(=O)c2cccc3nonc23)cc1` the “activity change, negative = growth inhibition” value was inactive: 7.08%. In the case of `O=C1CCC(C(=O)N2CCN(c3ccc(F)cc3)CC2)CN1CC1CCCCC1` (centres undefined), the Potency is reported as inconclusive [inhibitor, partial curve, poor fit]. With `Cc1nc2sc(C)c(C)n2c(=O)c1S(=O)(=O)N1CCN(c2ccccc2F)CC1` the “activity change, negative = growth inhibition” value was inactive: -27.7%. In the case of `O=C(c1cccc(F)c1)N1CCN(Cc2c[nH]c3ccccc23)CC1`, the Potency is reported as inconclusive [inhibitor, partial curve]. With `COc1ccc(S(=O)(=O)N(C(=O)C(C)C)c2ccc3oc(=O)sc3c2)cc1` the Potency was active: 10.3 µM. With `CCn1c(/C=C/N(C(C)=O)c2ccccc2)[n+](CC)c2ccc(Cl)cc21` the Potency was active: 16.4 µM. With `O=C(CSc1nc(Nc2ccccc2)nc(N2CCOCC2)n1)Nc1ccc([N+](=O)[O-])cc1` the Potency was active: 18.4 µM. For `Cc1cccc(N2CCN(C(=O)c3ccc4nc(N5CCC(C)CC5)sc4c3)CC2)c1C`, the Potency was active: 20.6 µM. In the case of `CSc1nc(N)nc2c1ncn2CC(=O)N[C@H](C)c1cccc2ccccc12`, the Potency is reported as inconclusive [inhibitor, single point]. In the case of `CC(=O)c1cccc(NS(=O)(=O)c2ccc3c(c2)N(C(C)=O)CCO3)c1`, the Potency is reported as inconclusive [inhibitor, single point]. For `COc1cc(/C=N/NC(=O)c2sc(N)c(C#N)c2C)ccc1O`, the Potency was inconclusive [inhibitor, single point]. For `C=CCn1c(-c2ccc([N+](=O)[O-])cc2)n[nH]c1=S`, the “activity change, negative = growth inhibition” value was inactive: -7.93%. For `CN1OC[C@@H]2CN(S(=O)(=O)c3cccc(C(F)(F)F)c3)[C@H](c3ccc(-c4cccnc4)cc3)C[C@@H]21`, the Potency was active: 29.1 µM. In the case of `C=Cc1ncc(OC)c2c1[nH]c1ccccc12`, the Potency is reported as active: 3.66 µM. With `CC(OC(=O)c1ccc(C(C)(C)C)cc1)C(=O)NC1CCCCC1C` (centres undefined) the Potency was inconclusive [inhibitor, single point]. With `CCN(CC(=O)NCc1cccs1)C(=O)c1cccc(S(=O)(=O)NC)c1` the Potency was inconclusive [inhibitor, single point]. With `Cc1cccc(C)c1NC(=O)C1CCCN1C(=O)Nc1cccc(F)c1` (centres undefined) the “activity change, negative = growth inhibition” value was inactive: -12%. In the case of `COc1ccc(Cl)cc1-c1cc(C(=O)NCc2cccc(Cl)c2)[nH]n1`, the Potency is reported as inconclusive [inhibitor, partial curve, poor fit]. With `CCCCCCCCCCNC(=O)CCn1[nH]c(=O)c2ccccc2c1=O` the “activity change, negative = growth inhibition” value was inactive: -26.8%. With `CC[C@@H]1CC=C[C@H]2[C@H]1C(=O)N(Cc1ccccc1)[C@H]2c1ccc(OC)c(Cl)c1` the Potency was active: 18.4 µM. For `Cc1ccc2c(Sc3ccc(Cl)cc3)c(C(=O)NCCC(C)C)[nH]c2c1`, the “activity change, negative = growth inhibition” value was inactive: -29.9%. In the case of `COc1cccc(NC(=O)NCCCN2CCN(c3ccc(F)cc3)CC2)c1`, the Potency is reported as inconclusive [inhibitor, partial curve, poor fit]. With `O=C(Nc1nc2c(F)cccc2s1)c1ccc(S(=O)(=O)N2CCOCC2)cc1` the Potency was inconclusive [inhibitor, partial curve, poor fit]. In the case of `CCc1nnc(SCc2nc(-c3ccccc3Cl)oc2C)c2cc3sc(C)cc3n12`, the Potency is reported as inconclusive [inhibitor, single point]. For `COc1ccc(C(O)(c2ccccc2OC)C(CN2CCOCC2)c2ccccc2)cc1` (centres undefined), the Potency was inconclusive [inhibitor, single point]. For `COC(=O)[C@]1(Cc2ccccc2)N[C@H](CN(C)C(=O)NC(C)C)[C@@H]2C(=O)N(Cc3ccccc3)C(=O)[C@@H]21`, the “activity change, negative = growth inhibition” value was inactive: -11.3%. In the case of `CC(C)c1ccc(NC(=O)NCc2cccnc2)cc1`, the “activity change, negative = growth inhibition” value is reported as inactive: -24.7%. With `Nc1ccc(Br)c2cccnc12` the Potency was inconclusive [inhibitor, full curve, poor fit]. For `O=C(N[C@@H](Cc1ccccc1)C(=O)OCc1ccccc1)c1nc[nH]c1C(=O)NC(c1ccccc1)c1ccccc1`, the Potency was inconclusive [inhibitor, single point]. In the case of `COc1ccc(-c2ccc(CN3C(C(C)C)C(=O)N(Cc4cn(CCC5OCCCO5)nn4)CCS3(=O)=O)cc2)cn1` (centres undefined), the Potency is reported as active: 14.6 µM. In the case of `COC(=O)N1CCC[C@@]2(CCN(C(c3ccccc3)c3ccccc3)C2)C1`, the Potency is reported as inconclusive [inhibitor, single point]. For `O=C(N/N=C/c1ccc(N2CCCCC2)o1)c1ccccc1`, the Potency was active: 9.2 µM. For `CC(C)CNC(=O)c1[nH]c(C(F)(F)F)nc1-c1ccccc1`, the “activity change, negative = growth inhibition” value was inactive: -0.566%. In the case of `Cc1sc2ncn(CC(=O)N3CCN(c4ccc(F)cc4)CC3)c(=O)c2c1S(=O)(=O)N1CCOCC1`, the “activity change, negative = growth inhibition” value is reported as inactive: -10.3%. For `Cc1onc(NC(=O)c2ccc([N+](=O)[O-])o2)c1Br`, the “activity change, negative = growth inhibition” value was inactive: -19.5%. For `Cc1ccc(-c2nc(C3CCN(S(=O)(=O)c4ccc(C(C)(C)C)cc4)CC3)no2)cc1`, the Potency was inconclusive [inhibitor, single point]. For `CCC(O)(c1ccc(OC)cc1)C(CN1CCOCC1)c1ccccc1` (centres undefined), the Potency was inconclusive [inhibitor, single point]. For `CCN1C(=O)[C@H]2[C@@H](c3ccc(-c4ccc5c(c4)OCO5)c(OC)c3)N[C@@](Cc3ccccc3)(C(=O)OC)[C@H]2C1=O`, the Potency was inconclusive [inhibitor, single point]. With `COc1ccc2c(c1OC)C(=O)N1C(C(=O)O)Cc3c([nH]c4ccccc34)C21` (centres undefined) the Potency was inconclusive [inhibitor, partial curve]. For `CCc1nn(CC(=O)NC(C)CCc2ccccc2)c(=O)c2cc3occc3n12` (centres undefined), the Potency was inconclusive [inhibitor, single point]. For `CCOc1ccc(NC(=O)CSc2nnc(-c3ccoc3C)n2CC2CCCO2)cc1` (centres undefined), the Potency was inconclusive [inhibitor, single point]. In the case of `Cc1ccc(C(=O)NC(=S)NNC(=O)CCN2CCOCC2)cc1`, the Potency is reported as inconclusive [inhibitor, single point]. For `CCCCNc1nnc(SCC(=O)N2CCN(S(=O)(=O)c3ccc4ccccc4c3)CC2)s1`, the Potency was inconclusive [inhibitor, partial curve]. In the case of `O=c1[nH]c2ccccc2cc1CN(Cc1cccnc1)S(=O)(=O)c1ccc(Cl)cc1`, the Potency is reported as inconclusive [inhibitor, single point]. For `O=C1NC(=S)S/C1=C1\Sc2ccccc2N1CCCS(=O)(=O)O`, the “activity change, negative = growth inhibition” value was inactive: 0.33%. With `O=C(NNC(=O)C1COc2ccccc2O1)c1ccccc1` (centres undefined) the “activity change, negative = growth inhibition” value was inactive: -14.7%. In the case of `CCc1cc(C(=O)OC)c(NC(=O)C2CC(=O)NN2Cc2ccccc2)s1` (centres undefined), the Potency is reported as inconclusive [inhibitor, partial curve]. For `COc1ccccc1NC(=O)COC(=O)Cc1c[nH]c2ccccc12`, the “activity change, negative = growth inhibition” value was inactive: -25.9%. For `COc1cc2ncnc(Nc3cccc(Cl)c3)c2cc1OC`, the Potency was active: 17.8 µM. With `Cc1ccc(C2(CCNCc3ccc(N(C)C)cc3)CCOC(C(C)C)C2)cc1` (centres undefined) the Potency was inconclusive [inhibitor, single point].
